Assay results taken from the supplement of paper PMC4466236.
Whole data set: some 33,000 sequences, median “E-score (dimensionless, -0.5 to 0.5)” near -0.058, cut for the highest 2% near 0.35. This is one part of the list.

The sequences below were run on MvaT (assay: PBM 8-mer E-score (mean of HK and ME arrays) (E-score (dimensionless, -0.5 to 0.5)); higher = stronger relative binding preference; most listed sequences are background and not binding sites).
Outline: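 Full-length P. aeruginosa MvaT carrying an N-terminal glutathione S-transferase tag was tested by protein binding microarray following a previously described protocol. Two universal double-stranded 60-mer arrays, ME and HK, were used, each with a constant 25-mer primer region and a variable 35-mer region covering all 8-mers. The rank-based E-score is the mean of the two arrays, parsed with a custom script. Its range runs from -0.5 to 0.5 for each 8-mer.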

Sequence | PBM 8-mer E-score
CAGTTAAA | 0.254
AGCCCTCG | -0.302
TTCTTAAA | 0.165
AACAGATG | -0.128
GCGCGACC | -0.249
GTCCATGA | -0.196
CAGAAGGA | -0.283
AACCTAAG | -0.0643
AACTAGGG | 0.0199
ACAAAAAA | 0.21
CCCGCAAA | -0.0361
AAACAAAA | 0.278
TACCTAGA | 0.00753
CAGGAAAA | 0.123
CGCGAGAA | -0.00932
CACTGTCA | -0.00906
CTCGCCTA | 0.0159
CGGACCAC | -0.254
CATTTGTA | 0.188
AAAGTTAC | 0.212
AGGGGCAT | -0.105
GGTATTAA | 0.34
AGACTGAG | -0.0794
AGCCCGCT | -0.304
CGACCATA | -0.0528

Sequence | PBM 8-mer E-score
ATACGTCG | 0.0454
AAAGACAT | 0.0953
TACAAATA | 0.355
CGCCTGCA | -0.25
ACGGACTG | -0.213
CGAACTAA | 0.25
AAAAACCA | 0.119
GGAAATCC | -0.0433
GACGACGA | 0.0375
GCGATAAC | 0.0226
CATGTGAG | -0.162
ACAATGCC | -0.0495
ATAAAGGG | 0.0945
GCCTTGCA | -0.217
CCTCTAAA | -0.0345
AGCATCTC | -0.227
AGCAGAGC | -0.303
AGGACGTC | -0.222
CACCATCG | -0.148
ACCCTCTC | -0.289
GTCCCTAA | -0.207
CTCGCAAA | -0.0615
GACTGTAC | -0.0739
GCACAAAA | 0.159
CATTACGA | 0.0396

Sequence | PBM 8-mer E-score
AACGATAA | 0.241
ATAACCCG | 0.156
CCTGGGAA | -0.216
CCGATTCG | -0.146
ACGGTCAA | -0.0499
CCTGATCA | -0.152
CGTCATCC | -0.217
AAAGGATC | -0.143
CGAACCCA | -0.131
AAACTCTC | 0.0917
CATGGTTA | 0.103
AAGGACTT | 0.0123
AGCCTCAT | -0.214
ATCTCATC | -0.00972
CAAATCCA | 0.0254
CGCCACCG | -0.158
CTGTACGA | -0.0883
AGTGTGAG | 0.0235
AAGGGTCT | -0.221
CTTGGATA | 0.0476
ACCAGTAG | -0.0146
ATTGGCGA | -0.1
GTTTAGGA | -0.00619
AGAGCGGA | -0.0697
AATCACCT | -0.0485

Sequence | PBM 8-mer E-score
CTCACGTA | -0.0298
AAGTTTAA | 0.357
AAAGGGTT | -0.115
CGAACGTC | -0.286
ACATACAA | 0.362
GACCTGCA | -0.064
AATACAGT | 0.194
AGGTGCTG | -0.153
AAAATTAG | 0.162
AACGAGAC | 0.0319
CATACAAA | 0.206
AAACCCTG | -0.121
CCCCAGCG | -0.0757
CACTCGGG | -0.309
TACCCCAA | -0.0573
TCGCATAA | 0.12
GTGATACA | 0.152
CATCCGTC | -0.323
AGATTGCC | -0.076
CGACAATA | 0.242
CTCCCAAG | -0.155
GTCCTTCA | -0.143
ATGCCTGA | -0.115
ATTAGCCC | 0.0535
ACCTAATC | -0.0335

Sequence | PBM 8-mer E-score
AAAGATAT | 0.317
GAAACATC | 0.115
GAATGCCC | -0.204
ATGTGGAG | 0.0521
CACGCCCG | -0.2
CCAGATTC | 0.0138
TCGCAGCA | -0.0769
ATTGCGCG | 0.178
CATAAGGC | -0.0599
GGAAGCAA | -0.152
GACACGGC | -0.227
ATCATTTA | 0.275
CCATGGAA | 0.063
GTGTGGAA | 0.0597
CTCTGTTA | 0.0156
ATTGGAAC | 0.154
AATGACCT | -0.158
GCACTGTA | 0.0342
CTACATCA | -0.0241
TAGTATCA | 0.0901
GAAAGGAA | -0.107
AGGTGATG | -0.263
ATAGACGG | -0.169
AGCGAGAG | -0.0951
CTGACCAG | -0.161

Sequence | PBM 8-mer E-score
TAACTGTA | 0.28
AGTTACGC | 0.143
GCCACGAC | -0.0787
AGTAGAGG | -0.118
AAGGGTTC | -0.233
ACTTATTG | 0.29
ATTATGTG | 0.261
AAACTGAA | 0.115
ACGACCGG | -0.128
CGAGTTCA | 0.00938
AAGGATAC | -0.0729
GGGCCTAA | -0.25
CCTTTACA | 0.0839
CCACGATA | 0.0949
ATGTCGTC | -0.187
ACTTCGCC | -0.0555
CTCTAATA | 0.364
ACCTCGTG | -0.139
AACAGCCA | -0.0713
GGATAGAA | 0.0177
GCTAGACA | -0.156
CCTGCGAG | -0.125
GCCCTGCA | -0.244
CTCCTGAA | -0.0675
AACCGAAG | 0.0622

Sequence | PBM 8-mer E-score
AGACGTAA | -0.0505
AAGATACC | 0.0698
CGGCTGTA | -0.161
CCAGACAC | -0.185
CTCGGTCC | -0.125
CGCCCAAG | -0.185
TCGAATAA | 0.258
CGGTTACA | 0.0406
CGTGATAG | -0.0181
CATTACCC | -0.128
CATCGCCC | -0.238
CTAAACTA | 0.259
ATTTTAAG | 0.225
ACAGGCTA | -0.0843
TGATTAAA | 0.27
ACCGAGAT | -0.0838
CACTCTCG | -0.245
AAGGGCGT | -0.135
AGGTAACG | -0.0912
CATTTTCG | 0.126
ATGTGTGA | 0.0741
ATCTTTCC | -0.106
